The source gives no read counts; variants with many changes may rest on few reads.
B1: LINE1-mini (parent)
chain: GGCAGAGCUCAACACAGCGUGGCAAAGUGGCUGUGGCUAGACUGCC

Variants of: B1
Experiment: self-cleavage, relative activity (ratio to wild type); higher = more cleavage; in vitro, sequencing; the parent is a self-cleaving ribozyme

Variant	self-cleavage
GGCUGAGCUGAACACAGCGUGGCAAAGUGGCUGUGGCCGGACUACA	0.01
GGCAGAGCUCAUCACAGCGGGGCAAAGCGGCUAUGGCUAGACUGCC	0.02
GUCAGAGCUCAACACAGCGUGGCAAAGUGGCUGUGGAUAGAUUGCC	0.08
GGCACAGCUCAACACAGCGUGGUAAAGUGGCUGUGUCUAGCCUGCC	0.03
CGCAGGGCUCAACAGAGCGUGGCAAAGUGGCUGUGGCUAGACUGCC	0.02
GGCAGAGGUCAACAGAGCGUGGCAAAGUGGCUGUGGCUACGCUGCC	0.01
GGCAGAGCUCGACACAGCGUGGCAAAGUGGCUGUUCCUAGACUGCC	0
GGCAGAGCUCAACAUAGCGUGGCAACGUGGCUGUGGCUAGACUGCA	0.63
GGCAGAGCUAAACACAGCGUGGCAAAGCGGCUGUGGCUAAACUGCC	0.02
UGCAGACCUCUACACAGCGUGGCAAAGUGGCUGUGACUAGAUUGCC	0.02
CGCAGAGCUCAACACAGCGUGGCAAACUGGAUGUGGCUAGACUGCC	0.03
GACAGAGCUCAAAAAAGCGUGGCAAAGUCUCUGUGGCUCGACUGCC	0.03
GGCAGAGCUCAGCACAGCGUGGCAAAGGGGCUGUGGAUAAACUGCC	0.2
GACAGAGCUCAACACAACGUGGCAAUGUGGCUGUGGCUAGACUUCC	0.13
GGCUGAGCUCAACAUAGCGUGGCAAAGUUGCUGUGGCUAGUCUGCC	0
GGUAGAGCUCACCACAGCGUGCCAAAGUGGUUGUGGCUAGACUGCC	0.01
GACGGAGCUCAACGCAGCGUGGCAAAGUGGCUGUGGCUAGACUGCC	0.12
GUCAGAGCUCAAUACAACGUGGCAAAGUGGCUGUGGCUAGUCAGCC	0.02
GUCAGAGUUCAACACAGCGUGGCAAAGUGGCAGUGGCUAGGCUGCC	0.05
GGCAUAGCUCAACACAGCGUGGCAAAGUGAAUGUGGCUAGACUGCC	0.04
GGCGGAGCUCAACACAGCGUGGCCAAGUGGCUGUGUCUAGAAUGCC	0.07
GGCAGAUCUCAACACAGCGUGGCAAAGGGACUGUGGCUAGACUGCC	0.04
GGCAGAGCUCAACACAGCGUGGCAAAAUCGAUGUGGCUAGACUGCC	0.52

Variant	self-cleavage
GCCAGAGCUCAACACAGCGUGGCAAAGUGGCUGUUGCUGGACUGCC	0.06
GGCGGAGCUCAACACAGCGUGUCAAAGUGGCUGUGGCUUCACUGCC	0.07
GGCAGAGCUCAAGAUAGCGUGGCAAAGUGGCUGUGGCUUGACUGCC	0.01
GGCAGAGCUCAUAACAGCGUGGCAAAGUGGCUGUGGCUAGACUGUC	0.14
GGCAGAGCUCAACACUGAGUAGCAAAGUGGCUGUGGCUAGACUGCC	0.1
GUCAGAGCUCAACCCAGCGUCUCAAAGCGGCUGUGGCUAGACUGCC	0.03
GGCAGAGCUCAACUCAGCGUAGCAAAGUGGCUGUAGCUAGACUGCC	0.25
GGCAGAGCUCAACACAGCGUGGGAAAGUUACUGUGGCCAGAUUGCC	0.25
GGCAGAGAUCAACACAGCGCGGCAAAGUGGCUGCAGCUAGACUGCC	0.09
GGGAGAGACCAACACAGCGUGGCAAAGUGGCUGUGGCUAGACUGAC	0.6
GGCAUAGCUCUAUACAGCGUGGCAAAGUGGCUGUGACUAGACAGCA	0.02
GUCAGAGCUCAACACAGCGUGGCAAAUUGGCUGUGGAUACACUGCC	0.04
GGCAGCACUCAACACAGCGUGGCAAGGGGGCUGUGGCUAGACUGCC	0.09
GGCAGAGAUCAACACAGUGUGGCAAAGUGGGUGAGGCUGGACUGCC	0.03
GGCAGAGCUCAACACAGCGUGGCAAAGGGGCUGUGGCUAUACUCCC	0.05
AGCAGAGCUUAACACAGCGUGGCAAAGUGGCUGUGGCUUGACAGCA	0
GGCGGAGCUCAAUACAGCGUGGCAAAGUGGCUAUGGCGAGACUGCC	0.03
GGCAGAGCUCAACACACCCUGGCAAAUUGGCUGUGGCUAGACUGCC	0.34
CGCAGACCUCAACACAGCGUGGCAAAGUGUCUGUGGCUAGACUGCC	0.01
AGCAGAGCUCAACACAGGGUGGCAAAAUGGCUGUGGCUAGAUUGCC	0.02
GGCAGAGCUCAACACAGUGUUUCAAGGUGGCUGUGGCUAGACUGCC	1.61
GGCAGAGCUCAACACACCGUGGCAAAGCGGUUGUGGCUAGACAGCC	0.13
GGCAAGGCUAAACACAGCGUGGCAAAGUGGCUGUGGCUAGACUCAC	0.02

Variant	self-cleavage
GGCAGAGCUAAAUACAGCGUGGCAAAGUGGCUUUGGCUAGACUUCC	0.02
GGUAGAGCUCACCACAUCGCCGCAAAGUGGCUGUGGCUAGACUGGC	0.04
GAGGGAGCUCAACACAGCGUGGCAAUGUGGCUGUGGCUAGACUGCC	0.28
UGCAGAGCUCAACACAGCGUAACAAAGUGGCUGUGGCUAGACUGGC	0.34
GGUAGAGAUCAUCACAGCGUGGCAAAGUGGCUGUGGCAAGACUGCC	0.1
GGCAGAGCUCUAAACAGCGUGGCAAAGUGGGUGUGGCUAGACUGCC	0.02
GGCAGACCUCAACACAGGGUGGCCAAGUGGCUGUGGCUAGACUGCC	0.05
GGCAGAGCACAACACAGCGUGGCAACAUGGCUGUGGCUAGUCUGCC	0.09
CGCAGAGCUCAACACAGCGUGGCAAAGCGGGUGUGGCAAGACUGCC	0.01
GGCAGAGCUCAACAAAGCGUGGCGAAGUGCCUCUGGCUAGACUGCC	0.08
GGCAGAGCUCAACACAGUGUGGCAUAGUGGCUGUGGCGAGACUGCC	0
GGCAGGGCUCAACACAGCGAGGCAAAGUAGCUGUGGCUAGACUGCC	0.05
GGCAGAGCUCCACACAGCGUGGCAAAGUGGCUGUGGCUAGGAUGCC	0.01
GGCAGAGCUCAACUCAGCGUGGCAAAGUGGUUGUGGCUAGACUGCA	0.01
UGCAGAGCUCAGCACCGCGUGGCAAAGUGGCUGUGGCUAGACUGCU	0.14
GGCAGAGCGCAUCACAGCGUGCCAAAGUGGAUGUGGCAAGACUGCC	0.01
GGCAGAGCUCAACACCGCGUAGCAAAGUGGCGGUGGUUAGACUGCC	0.02
GGCAGACCUCAACACAGCGUGGCAAAGUGCCUAUGGCUAGACUGCC	0.09
GUCAGAGCCCAACACAGCGUGGCAAAGUGGCGGUGGCUACACUGCA	0.01
GGCAGAGCUAAACGCAGCGUGGCAACGUAGCUGUCUCUAGACUGCC	0.12
GGCAGAGCUCAGCACAGCGUAGCAAAGUGGCUGUGGCUAGACCGCC	0.05
AGCAGAGCUCAAAACAGCGUUGCAAAGUGGCUGUGGCUAGACUGCC	0.09
GGUAGAGCUCAACACAGCGUGGCAAAGCGGCUGUGUCUAGGCUGCC	0.19

Variant	self-cleavage
GGCAGAGCUGAACACAGCGUGGCACAGUGACUGUUGCUUGACUGCC	0.02
GGCAGAGCUCAAAACAGCGUGGCAAAGUGGCUGUGCCUAGACUUCC	0.03
GGCAGAGCUCAACACAGCGUGGCGAAAUGGCUGUGGCUCUACCGAG	0.01
GGCAGAGCUCAACACAGCGUGCCAAAGUGGCUGUGGCUUGACCCCC	0.03
GGCAGAGCUCAACACAGCGCGGCAAAGUGGCUGGGGCUAGAGUGCC	0.03
GUCAGAGCUCAACACAGCGUGGCAAAGUGGCUGUGGCUAGUCUGCA	0.05
GCAAUAGCUCAACACAGCGUGGCACAGUGGCUGUGGCUAGACUGCC	0.03
GGCAGAGCUCAACACAGCGAGGCAAAGUGGCUGUGCCUAGACAGCC	0.02
GGCAGACCUCAACAGAGCGUGGCUAAGUGGCUGUGUCUAGACUGCC	0.02
GGCAAAGUUCAACACAGCGUGUCAAAGUGGCUGUGACUAGACUGCC	0.48
GGCCGAGCUCAACACAGCGUGGCAAAGUGGCUGUUGCUAGACUGAU	0.03
GGCAGAGCUCAAAACAGCGUGGCAUAGUAGCUGUGGCUAGACUGCC	0.15
GUCAGAGCUCAACACAGCGGGGCAAAGUGGCUGUGGCUAGACUACC	0.04
GGCAGAGCUCAAAAAAGCGUGGCACAGUUACUGUGGCUAGACUGCC	0.02
AGCAGAGCUCAACACAGCGUAACAAAGUGGAUGUGGCUAGACUGCC	0.07
GGCAGAGCUCCCCGCAGCGUGGCAAAGUGGCUGUGGCUAGACUGCC	0.01
GGCAGAGCUCAACGCAGCCUUGCAAAGUGGCUGUGGCUAUACUGCC	0.05
GGCAGAGCUCAACAAAGCGUGGCAAAGUGGCAGAGGCUAGACUGCC	0.23
GAAAGAGCUCAACACAUGUUGGCAAAGUGGCGGUGGCUAGACUGAC	0.03
GGCAGAGCUAAACACAGGGCGCCAAAGAGGCUGUGGCGAGACUGCC	0.05
GUCAGAGCUCAACACAGCGUGGCAACGUAGCAGUGGCUAGACUGCC	0.02
GGCAGAGCACAACACAGCGAGGCAAACUGGCUGUGGCUAGACUGCC	0.07
GGCAGAGAUCAACACAGCGUGCCAAAGUGGCUGCGGCUAGACUGCC	0.11

Variant	self-cleavage
GGCAGACCUCAACACAGCGCGACAAAGUGGCUUUGGCUAGACUACC	0.07
GGCAGAGCUCAACCAAGCGUGGGAAAGUGGCUGUGGCUAGACUGCC	0.04
GGCAGAUAUCAACACAACGUUGCAAAGUGGCUGUGUCUAUACUGCC	0.06
GGCAGACCCCAACAUAGCGUCGCAAAGUGGCUGUGGCUAGAGUGUC	0.02
GGCAGAGCUCAAGACAGCGGGGCAGAGUGGCUGUGGCUAGACUGCC	0.15
GACAGAGCUCAACAAAGCGUGGCAAAAGGGCUGUGGCUAGACUGCC	0.2
GGCAGAGCUCAACACAGCGAGUAAAAGUGGCUGUGGCUGCAAUGGC	0.06
GGCAGAGCUCUAUACAUCGUGGCAAAGUGGCUGUGGCUAGACUGCC	0.04
GUCAGAGCUCAACACAGCGUGGCAAAGUGGCUGUAGCUAUACUACC	0.05
GACAGAGUUCAACACAGCGUGGCAAAGUGUCUGUGUCUAGACUGCC	0.66
GCCAGAGCUCAACACAGCGUGGCAAGGUGGCCGUUGCAAGACUGCC	0.04
GGCAGGGCUCCAGACAGCGUGGCAAAGUGGCUGUGGCUAGACUGCC	0.02
GGCAUAGCUCAACACAGCAUGGCAAAGUGGCCGUGGCUGGACUGCC	0.04
GCCAGAGCUCAAUACAGCGUGGCAAAGUGGAUGUGGCUAGACUGCC	0.13
GGCAGAGCUCGACACAGCGAGUCAAAGUGGCUUUGGCUAGACUGCC	0.02
GGCAGAGCUCAACAUAGCGCGGCAAAGUGGCUGUGGCUGGAGGGCC	0.02
GGCAGACCUAAACACAACGUGGCCAAGUGGCUGUGGCUAGACUGCC	0.01
GACAGAGCUCAACACAGCGUGGAAAAAUGUCUGUAGCUAGACAGCC	0.03
UGCUGAGCUAAACACAGCGUGGCAAAGAGGCUGUGGCCAGACUGCC	0.01
GGCAGAGCUCAACACAGCGUGCCAGAGUGGCUGUGGCUAAACUGCC	0.01
